Reference: the supplement of paper PMC9588766
Where a name gives a salt, the structure may show the parent alone. Over roughly 1,900 compounds, “cell viability of compound + 1 nM pemigatinib relative to pemigatinib-only (DMSO) wells” has its median near 0.95; the lowest 2% begin near 0.22. The list shows a part of the results.

These compounds were tested on PDC-DUC18828 (assay: cell viability of compound + 1 nM pemigatinib relative to pemigatinib-only (DMSO) wells (fraction); PDC-DUC18828 is a patient-derived cholangiocarcinoma cell line; higher = less growth inhibition). Settings: first compound 1 µM; pemigatinib concentration 1 nM; 72 h.
Method: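 Selleck Bioactive library screen in the patient-derived FGFR2 fusion-positive ICC cell line PDC-DUC18828 (500 cells/well). Each compound was tested at 1 uM with 1 nM pemigatinib, in triplicate, for 72 h. Viability was read by CellTiter-Glo and normalised to plate DMSO controls. Value is the paper's averaged normalised viability.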

Row | Compound | cell viability
1 | CC(C)N(C[C@H]1O[C@@H](n2cnc3c(N)ncnc32)[C@H](O)[C@@H]1O)[C@H]1C[C@@H](CCc2nc3cc(C(C)(C)C)ccc3[nH]2)C1 + CCN1C(=O)N(c2c(F)c(OC)cc(OC)c2F)Cc2cnc3[nH]c(CN4CCOCC4)cc3c21 [pemigatinib] | 0.91
2 | COC(c1ccccc1)(c1ccccc1)[C@H](Oc1nc(C)cc(C)n1)C(=O)O [Ambrisentan] + CCN1C(=O)N(c2c(F)c(OC)cc(OC)c2F)Cc2cnc3[nH]c(CN4CCOCC4)cc3c21 [pemigatinib] | 1.02
3 | C[N+]1(C)[C@@H]2CC[C@H]1C[C@@H](OC(=O)C(O)c1ccccc1)C2 (stereo partly specified) [Homatropine Methylbromide] + CCN1C(=O)N(c2c(F)c(OC)cc(OC)c2F)Cc2cnc3[nH]c(CN4CCOCC4)cc3c21 [pemigatinib] | 0.913
4 | O=c1cc(N2CCOCC2)oc2c(-c3cccc4c3sc3ccccc34)cccc12 + CCN1C(=O)N(c2c(F)c(OC)cc(OC)c2F)Cc2cnc3[nH]c(CN4CCOCC4)cc3c21 [pemigatinib] | 0.951
5 | CC(C)(C(=O)O)c1ccc(C(O)CCCN2CCC(C(O)(c3ccccc3)c3ccccc3)CC2)cc1 (stereo unspecified) [Fexofenadine HCl] + CCN1C(=O)N(c2c(F)c(OC)cc(OC)c2F)Cc2cnc3[nH]c(CN4CCOCC4)cc3c21 [pemigatinib] | 0.909
6 | COc1ccc([C@@H]2CC(=O)c3c(O)cc(O[C@@H]4O[C@H](CO[C@@H]5O[C@@H](C)[C@H](O)[C@@H](O)[C@H]5O)[C@@H](O)[C@H](O)[C@H]4O)cc3O2)cc1O [Hesperidin] + CCN1C(=O)N(c2c(F)c(OC)cc(OC)c2F)Cc2cnc3[nH]c(CN4CCOCC4)cc3c21 [pemigatinib] | 0.949
7 | O=C[C@H](O)[C@@H](O)[C@H](O)CO [Xylose] + CCN1C(=O)N(c2c(F)c(OC)cc(OC)c2F)Cc2cnc3[nH]c(CN4CCOCC4)cc3c21 [pemigatinib] | 1.04
8 | CC(=O)O[C@]1(C(C)=O)CC[C@H]2[C@@H]3C[C@H](C)C4=CC(=O)C=C[C@]4(C)[C@@]3(F)[C@@H](O)C[C@@]21C [Fluorometholone Acetate] + CCN1C(=O)N(c2c(F)c(OC)cc(OC)c2F)Cc2cnc3[nH]c(CN4CCOCC4)cc3c21 [pemigatinib] | 0.854
9 | O=C(Nc1ccccc1)c1cc([N+](=O)[O-])ccc1Cl + CCN1C(=O)N(c2c(F)c(OC)cc(OC)c2F)Cc2cnc3[nH]c(CN4CCOCC4)cc3c21 [pemigatinib] | 0.909
10 | C=C1C(=O)O[C@@H]2/C=C(\C)CC/C=C(\C)CC[C@@H]12 [Costunolide] + CCN1C(=O)N(c2c(F)c(OC)cc(OC)c2F)Cc2cnc3[nH]c(CN4CCOCC4)cc3c21 [pemigatinib] | 0.917
11 | CCCc1cc(=O)[nH]c(=S)[nH]1 [Propylthiouracil] + CCN1C(=O)N(c2c(F)c(OC)cc(OC)c2F)Cc2cnc3[nH]c(CN4CCOCC4)cc3c21 [pemigatinib] | 0.939
12 | Cc1onc(-c2ccccc2)c1-c1ccc(S(N)(=O)=O)cc1 [Valdecoxib] + CCN1C(=O)N(c2c(F)c(OC)cc(OC)c2F)Cc2cnc3[nH]c(CN4CCOCC4)cc3c21 [pemigatinib] | 0.913
13 | COc1ccc(CCN(C)CCCC(C#N)(c2ccc(OC)c(OC)c2)C(C)C)cc1OC (stereo unspecified) [Verapamil HCl] + CCN1C(=O)N(c2c(F)c(OC)cc(OC)c2F)Cc2cnc3[nH]c(CN4CCOCC4)cc3c21 [pemigatinib] | 1.02
14 | CO/N=C(\C(=O)N[C@@H]1C(=O)N2C(C(=O)OCOC(=O)C(C)(C)C)=C(/C=C\c3scnc3C)CS[C@H]12)c1csc(N)n1 [Cefditoren Pivoxil] + CCN1C(=O)N(c2c(F)c(OC)cc(OC)c2F)Cc2cnc3[nH]c(CN4CCOCC4)cc3c21 [pemigatinib] | 0.972
15 | Oc1ncnc2[nH]ncc12 [Allopurinol] + CCN1C(=O)N(c2c(F)c(OC)cc(OC)c2F)Cc2cnc3[nH]c(CN4CCOCC4)cc3c21 [pemigatinib] | 0.987
16 | CN(N=O)C(=O)NC1C(O)OC(CO)C(O)C1O (stereo unspecified) [Streptozotocin (STZ)] + CCN1C(=O)N(c2c(F)c(OC)cc(OC)c2F)Cc2cnc3[nH]c(CN4CCOCC4)cc3c21 [pemigatinib] | 0.991
17 | C=C[C@]1(C)C[C@@H](OC(=O)CS[C@@H]2C[C@H]3CC[C@@H](C2)N3C)[C@]2(C)[C@H](C)CC[C@]3(CCC(=O)[C@H]32)[C@@H](C)[C@@H]1O [Retapamulin] + CCN1C(=O)N(c2c(F)c(OC)cc(OC)c2F)Cc2cnc3[nH]c(CN4CCOCC4)cc3c21 [pemigatinib] | 0.93
18 | O=C(CCc1ccc(O)cc1)c1c(O)cc(O)cc1O[C@@H]1O[C@H](CO)[C@@H](O)[C@H](O)[C@H]1O [Phlorizin] + CCN1C(=O)N(c2c(F)c(OC)cc(OC)c2F)Cc2cnc3[nH]c(CN4CCOCC4)cc3c21 [pemigatinib] | 0.918

Row | Compound | cell viability
19 | COc1ccccc1C(=O)Nc1cc2c(cc1N1CCCC1)n(C)c(=O)n2C + CCN1C(=O)N(c2c(F)c(OC)cc(OC)c2F)Cc2cnc3[nH]c(CN4CCOCC4)cc3c21 [pemigatinib] | 0.942
20 | C=CC(=O)Nc1cccc(C)c1Nc1ncc2cc(-c3c(Cl)c(OC)cc(OC)c3Cl)ccc2n1 + CCN1C(=O)N(c2c(F)c(OC)cc(OC)c2F)Cc2cnc3[nH]c(CN4CCOCC4)cc3c21 [pemigatinib] | 0.8
21 | C[C@]12CCC(=O)C=C1CC[C@@H]1[C@@H]2[C@@H](O)C[C@@]2(C)[C@H]1CC[C@]2(O)C(=O)CO [Hydrocortisone] + CCN1C(=O)N(c2c(F)c(OC)cc(OC)c2F)Cc2cnc3[nH]c(CN4CCOCC4)cc3c21 [pemigatinib] | 0.913
22 | O=C(C=Cc1ccccc1)NC(NC(=S)Nc1ccc(Cl)cc1)C(Cl)(Cl)Cl (stereo unspecified) + CCN1C(=O)N(c2c(F)c(OC)cc(OC)c2F)Cc2cnc3[nH]c(CN4CCOCC4)cc3c21 [pemigatinib] | 0.939
23 | Nc1nc(Cl)nc2c1ncn2[C@H]1C[C@H](O)[C@@H](CO)O1 [Cladribine] + CCN1C(=O)N(c2c(F)c(OC)cc(OC)c2F)Cc2cnc3[nH]c(CN4CCOCC4)cc3c21 [pemigatinib] | 0.409
24 | O=C([C@@H](Cc1cccc(C(F)(F)F)c1)NS(=O)(=O)c1cc(F)c2c(c1)CCNC2)N1CCCC1 + CCN1C(=O)N(c2c(F)c(OC)cc(OC)c2F)Cc2cnc3[nH]c(CN4CCOCC4)cc3c21 [pemigatinib] | 1.05
25 | Cc1cc(C(=O)NOCCO)c(Nc2ccc(I)cc2F)n(C)c1=O + CCN1C(=O)N(c2c(F)c(OC)cc(OC)c2F)Cc2cnc3[nH]c(CN4CCOCC4)cc3c21 [pemigatinib] | 0.48
26 | CC1(C)S[C@@H]2[C@H](NC(=O)[C@H](N)c3ccc(O)cc3)C(=O)N2[C@H]1C(=O)O [Amoxicillin Sodium] + CCN1C(=O)N(c2c(F)c(OC)cc(OC)c2F)Cc2cnc3[nH]c(CN4CCOCC4)cc3c21 [pemigatinib] | 1.03
27 | CC1(C)S[C@@H]2[C@H](NC(=O)[C@H](N)c3ccc(O)cc3)C(=O)N2[C@H]1C(=O)O [Amoxicillin] + CCN1C(=O)N(c2c(F)c(OC)cc(OC)c2F)Cc2cnc3[nH]c(CN4CCOCC4)cc3c21 [pemigatinib] | 0.858
28 | COc1cccc2c1C(=O)c1c(O)c3c(c(O)c1C2=O)C[C@@](O)(C(=O)CO)C[C@@H]3O[C@H]1C[C@H](N)[C@H](O)[C@H](C)O1 [Doxorubicin (Adriamycin)] + CCN1C(=O)N(c2c(F)c(OC)cc(OC)c2F)Cc2cnc3[nH]c(CN4CCOCC4)cc3c21 [pemigatinib] | 0.137
29 | OCCOCCN1CCN(C2=Nc3ccccc3Sc3ccccc32)CC1 [Quetiapine Fumarate] + CCN1C(=O)N(c2c(F)c(OC)cc(OC)c2F)Cc2cnc3[nH]c(CN4CCOCC4)cc3c21 [pemigatinib] | 0.983
30 | Cc1nc(Nc2cnn(C3CCNCC3)c2)nc2c1N(C)C(=O)c1cc3ccccc3cc1N2C + CCN1C(=O)N(c2c(F)c(OC)cc(OC)c2F)Cc2cnc3[nH]c(CN4CCOCC4)cc3c21 [pemigatinib] | 0.926
31 | Cc1[nH]c2ccccc2c1CCNC(=O)c1cccs1 + CCN1C(=O)N(c2c(F)c(OC)cc(OC)c2F)Cc2cnc3[nH]c(CN4CCOCC4)cc3c21 [pemigatinib] | 0.957
32 | N=C(N)c1ccc(OCCCCCOc2ccc(C(=N)N)cc2)cc1 [Pentamidine] + CCN1C(=O)N(c2c(F)c(OC)cc(OC)c2F)Cc2cnc3[nH]c(CN4CCOCC4)cc3c21 [pemigatinib] | 0.884
33 | N#Cc1c(O)c2c(-c3ccc(-c4ccccc4O)cc3)csc2[nH]c1=O + CCN1C(=O)N(c2c(F)c(OC)cc(OC)c2F)Cc2cnc3[nH]c(CN4CCOCC4)cc3c21 [pemigatinib] | 0.976
34 | CCCCC(=O)O[C@H]1CC[C@H]2[C@@H]3CCc4cc(O)ccc4[C@H]3CC[C@]12C [Estradiol valerate] + CCN1C(=O)N(c2c(F)c(OC)cc(OC)c2F)Cc2cnc3[nH]c(CN4CCOCC4)cc3c21 [pemigatinib] | 0.881
35 | Cc1nc2ccc(-n3ncc(C(=O)c4cc5ccccc5[nH]4)c3N)cc2[nH]1 + CCN1C(=O)N(c2c(F)c(OC)cc(OC)c2F)Cc2cnc3[nH]c(CN4CCOCC4)cc3c21 [pemigatinib] | 0.886
36 | Cc1ccc(Nc2c(F)cccc2Cl)c(CC(=O)O)c1 [Lumiracoxib] + CCN1C(=O)N(c2c(F)c(OC)cc(OC)c2F)Cc2cnc3[nH]c(CN4CCOCC4)cc3c21 [pemigatinib] | 0.855
